Screen size: about 220,000 compounds; about 16,000 (7.3%) were called active. The shares of active, inactive and inconclusive entries below differ from those in the screen. The call rests on the fitted dose curve; in most records, active means well fitted inhibition curve with a large enough effect (not every such curve was filed as active); inconclusive means small, poorly fitted or top-dose-only effect, or another doubt; inactive means no such curve, though single readings can be large or run the other way. No potency is given beside an inconclusive call; the fits are too rough.
Molecular target: Aldehyde dehydrogenase 1A1 (Homo sapiens) (UniProt P00352)
Chain of UniProt P00352 (P00352 whole entry, looked up): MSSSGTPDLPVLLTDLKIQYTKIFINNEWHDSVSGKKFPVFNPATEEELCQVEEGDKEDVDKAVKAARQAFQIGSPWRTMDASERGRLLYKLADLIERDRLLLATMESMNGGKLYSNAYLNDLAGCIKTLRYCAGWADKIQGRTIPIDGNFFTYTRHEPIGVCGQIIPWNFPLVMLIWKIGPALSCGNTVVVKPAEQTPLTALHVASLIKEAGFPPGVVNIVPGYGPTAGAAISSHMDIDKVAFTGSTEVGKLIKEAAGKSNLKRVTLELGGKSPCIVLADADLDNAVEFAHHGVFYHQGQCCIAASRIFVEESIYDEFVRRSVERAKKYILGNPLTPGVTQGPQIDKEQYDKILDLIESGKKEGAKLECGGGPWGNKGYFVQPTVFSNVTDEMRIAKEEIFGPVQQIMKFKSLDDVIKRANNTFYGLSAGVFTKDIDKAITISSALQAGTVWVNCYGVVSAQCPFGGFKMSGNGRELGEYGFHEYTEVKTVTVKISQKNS
Assay: qHTS Assay for Inhibitors of Aldehyde Dehydrogenase 1 (ALDH1A1)
Details: Purified ALDH1A1, NADH fluorescence, propionaldehyde substrate; series mostly up to 75.3 µM
Potency means the concentration at half of the fitted maximal effect; tags describe the fitted curve by direction and shape.

Row | SMILES | Potency
1 | CCn1c(C)c(C(C)=O)c(N2CCN(C(c3ccccc3)c3ccccc3)CC2)nc1=S | active: 14.1 µM
2 | Cc1cccn2c(=O)c(/C=C(\C#N)C(=O)NC3CCS(=O)(=O)C3)c(N3CCC(C(N)=O)CC3)nc12 (stereo not given) | inactive
3 | CCOC(=O)c1cnc(-n2cc(C)cn2)nc1Nc1ccccc1OCC | inactive
4 | Cc1ccc(NC(=O)C(=O)c2c(-c3ccccc3)cc3ccccn23)cc1S(=O)(=O)N1CCOCC1 | inconclusive [inhibitor, full curve]
5 | CC(C)CC(=O)c1c[nH]c(C(=O)NCCCn2ccnc2)c1 | inconclusive [inhibitor, single point]
6 | CNC(=O)c1ccc(NC(=O)/C=C/c2cccc(F)c2)cc1 | inactive
7 | O=C(CSc1cc([N+](=O)[O-])cc(S(=O)(=O)Cc2ccccc2)c1)NC1CC1 | active: 25.1 µM
8 | NS(=O)(=O)c1ccc(NC(=S)NCc2ccco2)cc1 | active: 6.31 µM
9 | CCOc1ccc(N(CC(=O)N2CCC(Cc3ccccc3)CC2)S(C)(=O)=O)cc1 | inconclusive [inhibitor, partial curve]
10 | Cc1oc(-c2ccccc2F)nc1CN1CCC(C(=O)NC2CCCCCCC2)CC1 | inconclusive [inhibitor, single point]
11 | O=C(CN(CC1CCCO1)S(=O)(=O)c1ccc(S(=O)(=O)NCC2CCCO2)cc1)Nc1ccccc1 (stereo not given) | inactive
12 | O=C(Nc1ccccc1)C1CCCN(S(=O)(=O)c2ccc(-n3cnnn3)cc2)C1 (stereo not given) | inconclusive [inhibitor, single point]
13 | Cc1ccc(S(=O)(=O)NC2=NCCC2)cc1 | inactive
14 | CCOC(=O)CNC(=O)c1nn(-c2ccc(OCC)cc2)c(=O)c2ccccc12 | inconclusive [inhibitor, single point]
15 | Cc1cccc(OCC(=O)N/N=C\C=C\c2ccc3c(c2)OCO3)c1C | inactive
16 | Cc1sc2ncnc(NCC3CCCO3)c2c1C (stereo not given) | inactive
17 | Cc1ccc(N2C(=O)C3C(C2=O)C2C=CC3C23CC3)c([N+](=O)[O-])c1 (stereo not given) | active: 2.51 µM
18 | COc1cccc(-c2nn(-c3ccccc3)cc2CN(C)Cc2c(C)nc3ccccn23)c1 | inconclusive [inhibitor, single point]
19 | O=C(Nc1nc(-c2ccccn2)cs1)C12CC3CC(CC(O)(C3)C1)C2 | inconclusive [inhibitor, single point]
20 | CCN(CC)CCOc1c(Br)ccc2c1sc1nc3n(c(=O)c12)CCC3 | inconclusive [inhibitor, partial curve, poor fit]

— PubChem BioAssay AID1030 (National Center for Advancing Translational Sciences (NCATS), 2008)
